Assay results reported in PubChem BioAssay AID540317 (National Center for Advancing Translational Sciences (NCATS), 2011).
Several values for one entry are separate records, joined by “and”; a condition that tells them apart may be missing. Equal values may be shown once. Out of some 390,000 compounds screened, about 2,200 (0.56%) were called active. The inconclusive results got no clear call from the source; some entries with a clear call stand among them for comparison. Calls follow the shape of the dose curve; as a rule, active = well fitted inhibition curve with a large enough effect; inconclusive = small, poorly fitted or top-dose-only effect; inactive = no such curve, though single readings can be large or run the other way. Potencies of inconclusive entries are doubtful fits and often do not repeat.

The molecules below were run against Chromobox protein homolog 1 (Homo sapiens) (UniProt P83916) (assay: HTS for Inhibitors of HP1-beta Chromodomain Interactions with Methylated Histone Tails). Conditions: AlphaScreen HP1-beta / biotin-H3K9me3 peptide binding; series mostly up to 114 µM; activity change, negative = inhibition: at the top concentration.
Sequence of UniProt P83916 (P83916 whole entry, looked up): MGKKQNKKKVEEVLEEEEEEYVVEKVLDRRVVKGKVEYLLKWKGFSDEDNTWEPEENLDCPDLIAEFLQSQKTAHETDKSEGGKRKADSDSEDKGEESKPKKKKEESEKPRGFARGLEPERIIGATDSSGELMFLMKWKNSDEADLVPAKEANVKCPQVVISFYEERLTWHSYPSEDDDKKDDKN
Method in brief: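 AlphaScreen: HP1-beta (50 nM) preformed 30 min with biotin-H3(1-18)K9me3 peptide (50 nM) in PBS pH 7.4, 0.01% Tween-20. Compound added for 30 min at RT, then streptavidin donor/nickel chelate acceptor beads (10 ug/mL) for 30 min.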
Also: nearly all actives have a fitted effect of over 70% in size.
Potency is read from the fitted curve at half-maximal effect; tags tell the direction and shape of the fitted curve.

| SMILES | Potency | activity change, negative = inhibition |
| --- | --- | --- |
| O=C(N/N=C/c1cccnc1)c1cccc(NC(=O)c2ccc(Cl)cc2)c1 | inconclusive: 50.1 µM [inhibitor, partial curve] |  |
| CCN(c1ccc(Cl)cc1)S(=O)(=O)c1nnc(NC(=O)c2ccccc2C)s1 |  | inactive: 25.2% |
| CN(Cc1ccccc1)c1nc(CN2CCOCC2)nc2scc(-c3ccccc3)c12 | inconclusive: 11.2 µM [inhibitor, partial curve, poor fit] |  |
| COc1ccc(N2CCN(C(C)C(=O)N3CC(C)OC(C)C3)CC2)cc1 (configuration not stated) | inconclusive: 20 µM [inhibitor, full curve, poor fit] |  |
| Cc1cccc2c1N(C(=O)CN1C(=O)c3ccccc3C1=O)C(C)(C)c1ssc(=S)c1-2 | inconclusive: 25.1 µM [inhibitor, partial curve, poor fit] |  |
| COc1ccc(CCNC(=S)NC(=O)c2ccccc2)cc1OC |  | inactive: -12.1% |
| Cc1ccc(C2=Nc3c(ccc4ccccc34)C(c3ccncc3)=NN2)cc1 | inconclusive: 17.8 µM [inhibitor, full curve] |  |
| N#CC1=C2SCN(C3CCCCC3)CN2C(=O)CC1c1c(F)cccc1Cl (configuration not stated) | inconclusive: 31.6 µM [inhibitor, full curve] |  |
| O=C(O)CCCCN1C(=O)/C(=C\c2ccc(OCc3ccccc3)c(OCc3ccccc3)c2)SC1=S | inconclusive: 15.8 µM [inhibitor, partial curve] |  |
| COc1ccccc1Nc1nc(-c2sc(N)nc2C)cs1 | inconclusive: 25.1 µM [inhibitor, full curve] |  |
| O=C(c1ccco1)N1CCN(Cc2ccc(F)cc2)CC1 | inconclusive: 15.8 µM [inhibitor, full curve] |  |
| CCCN1CCN(c2cc3c(cc2F)c(=O)c(S(=O)(=O)c2ccc(CC)cc2)cn3CC)CC1 |  | inactive: 37.6% |
| Cc1ccc(CNc2ccc(N3CCOCC3)cc2)s1 | inconclusive: 44.7 µM [inhibitor, partial curve] |  |
| C/C=C/c1ccc(OCC(O)CNCCc2ccc(OC)cc2)c(OC)c1 (configuration not stated) | inconclusive: 56.2 µM [inhibitor, single point] |  |
| COc1ccc(NS(=O)(=O)c2ccc(N3CCCC3)c(NC(=S)Nc3cccc(C)c3C)c2)cc1 | inconclusive: 15.8 µM [inhibitor, full curve] |  |
| COc1cccc(C(=O)N2CCN(C3CCC(c4ccccc4)CC3)CC2)c1 (configuration not stated) | inconclusive: 50.1 µM [inhibitor, partial curve, poor fit] |  |
| CC1Cn2c(C(=O)NCc3cccc(Br)c3)cc3cccc(c32)S1 (configuration not stated) |  | inactive: 75.6% |
| O=C1N/C(=N/Nc2ccccc2)S/C1=C\c1ccccc1 | inconclusive: 44.7 µM [inhibitor, partial curve, poor fit] |  |
| CN(C)c1ccc(NC(=S)NC23CC4CC(CC(C4)C2)C3)cc1 | inconclusive: 10 µM [inhibitor, partial curve] |  |
| CCC(=O)N(Cc1cc(=O)[nH]c2ccccc12)c1ccccc1C | inconclusive: 79.4 µM [inhibitor, partial curve, poor fit] |  |
| CCc1ccc(Nc2n[n+](-c3ccccc3)c(-c3ccc(N(CC)CC)cc3)s2)cc1 | inconclusive: 39.8 µM [inhibitor, partial curve, poor fit] |  |
| COc1cccc(N(C(=O)c2ccco2)C(C(=O)NC2CCCC2)c2ccc(N(C)C)cc2)c1 (configuration not stated) | inconclusive: 70.8 µM [inhibitor, partial curve, poor fit] |  |
| O=C(O)c1ccc(-n2cccc2/C=C2/NC(=O)N(c3cccc(Cl)c3)C2=O)cc1 | inconclusive: 8.91 µM [inhibitor, full curve, poor fit] |  |

| SMILES | Potency | activity change, negative = inhibition |
| --- | --- | --- |
| O=C(Nc1ccccc1N1CCCC1)c1ccc(Cl)c(S(=O)(=O)N2CCOCC2)c1 | inconclusive: 79.4 µM [inhibitor, single point] |  |
| Cc1ccc(-c2ccc(=O)n(CC(=O)Nc3ccc(C)cc3Cl)n2)cc1 |  | inactive: 46.7% |
| Nc1nc(-c2ccccc2)[nH]c(=O)c1N=O |  | inactive: 8.25% |
| COc1ccc(N2CCN(c3nc(NC(C)(C)C)nc(N4CCCCC4)n3)CC2)cc1 | inconclusive: 22.4 µM [inhibitor, partial curve] |  |
| Cc1cccc(Cn2c(C(=O)OC(C)C)cc3c2ccn3C)c1 | inconclusive: 70.8 µM [inhibitor, single point] |  |
| O=C(N/N=C/c1ccco1)c1cccc(N2Cc3ccccc3C2)c1 | inconclusive: 22.4 µM [inhibitor, full curve] |  |
| COc1cccc(C(CCc2cc(OC)c(OC)c(OC)c2)NC(C)=O)c1 (configuration not stated) |  | inactive: 27% |
| CCOC(=O)C1(C)/C(=N/Nc2cccc(Cl)c2)C(=O)C(=O)N1c1ccccc1 (configuration not stated) | inconclusive: 25.1 µM [inhibitor, full curve, poor fit] |  |
| COc1cc(/C=N/NC(=O)C(C)Nc2n[nH]c(=O)[nH]c2=O)cc(OC)c1O (configuration not stated) |  | inactive: -14.4% |
| NC(=O)COC(=O)c1cccc(S(=O)(=O)N2CCN(c3ccccc3)CC2)c1 |  | inactive: 20.3% |
| Cc1cc(C(=O)CSc2nnc(N)s2)c(C)n1Cc1cccs1 | inconclusive: 70.8 µM [inhibitor, partial curve, poor fit] |  |
| Cc1ccc(CSC2=Nc3ccccc3C3=NC(CCC(=O)NCc4ccco4)C(=O)N23)cc1 (configuration not stated) | inconclusive: 39.8 µM [inhibitor, single point] |  |
| CC1CN(CCCCOc2ccc3ccccc3c2)CC(C)O1 (configuration not stated) | inconclusive: 39.8 µM [inhibitor, partial curve, poor fit] |  |
| CN(C)C(=O)CCc1nc2sc3c(c2c(=O)[nH]1)CCCC3 |  | inactive: 27.3% |
| Cc1ccn2cc(CC(=O)O)nc2c1 | active: 70.8 µM |  |
| CCOC(=O)c1ccc(N2CCN(c3cc(C)ccc3C)CC2)c(NC(=O)Nc2ccc(CC)cc2)c1 |  | inactive: 43.7% |
| CCCOc1cccc(C(=O)Nc2cccc(-c3nc4ncccc4o3)c2C)c1 |  | inactive: -5.39% |
| CCOC(=O)c1ccccc1NC(=O)COc1coc(CN2CCc3ccccc32)cc1=O | inconclusive: 50.1 µM [inhibitor, partial curve] |  |
| COC(=O)CN(Cc1ccco1)S(=O)(=O)c1ccccc1 |  | inactive: -0.164% |
| COc1ccc(OCC(=O)N2CCN(C(=O)c3ccccc3)CC2)cc1 |  | inactive: 17.7% |
| CCN(CC)S(=O)(=O)c1ccc(N2CCCC2)c(NC(=O)c2nn(C)c(=O)c3ccccc23)c1 |  | inactive: 23.8% |
| CC1CC(C)C[N+](=C2C=C(N3CCCC3)CC(C)(C)C2)C1 (configuration not stated) | inconclusive: 70.8 µM [inhibitor, partial curve] |  |
| C=CC(=O)N1C/C(=C/c2ccc(F)cc2)C(=O)/C(=C\c2ccc(F)cc2)C1 | inconclusive: 14.1 µM [inhibitor, full curve, poor fit] |  |

| SMILES | Potency | activity change, negative = inhibition |
| --- | --- | --- |
| CC1CCC(Nc2nc3c(-c4ccc(Cl)cc4)nnn3c3ccccc23)CC1 (configuration not stated) |  | inactive: 85.8% |
| O=C1CCCC2=C1C(c1ccc(O)c(O)c1)Nc1ccc3ncccc3c12 (configuration not stated) | inconclusive: 56.2 µM [inhibitor, partial curve, poor fit] |  |
| O=C(CSc1oc(-c2ccccc2)nc1S(=O)(=O)c1ccc(Cl)cc1)Nc1ccc(F)cc1 |  | inactive: 33.6% |
| COCCN=c1scc(-c2cccs2)n1/N=C(\C)c1ccco1 | inconclusive: 44.7 µM [inhibitor, partial curve] |  |
| Cc1ccc(C2=NNC(=Nc3ccc(F)cc3)SC2)cc1 | inconclusive: 17.8 µM [inhibitor, full curve] |  |
| NC(=O)C1CCN(C(=O)c2cc(-c3ccc(Cl)s3)nc3ccccc23)CC1 |  | inactive: 41.4% |
| O=C1NC(=O)/C(=C\c2ccccc2OCc2ccccc2)S1 |  | inactive: 30.8% |
| Cc1ccccc1CSc1nc2ccccc2c(=O)[nH]1 | inconclusive: 1.12 µM [inhibitor, full curve, poor fit] |  |
| COC(=O)c1c(Cl)c2n3ccccc3c(C)c(-c3ccccc3)c-2c1C(=O)OC | inconclusive: 28.2 µM [inhibitor, full curve] |  |
| CCn1c(C)nc2cc(C(=O)NNC(=O)[C@@H](NC(=O)c3cc(OC)cc(OC)c3)C(C)C)ccc21 |  | inactive: 33.4% |
| CCc1ccc(-c2cc(N)n(-c3ccccc3)n2)cc1 | inconclusive: 28.2 µM [inhibitor, partial curve] |  |
| CCN(C[C@H]1N[C@@](CC)(C(=O)OC)[C@H]2C(=O)N(C)C(=O)[C@@H]12)S(=O)(=O)c1ccc(F)cc1 |  | inactive: 21.4% |
| C=CCn1c(O)c(N=NC(=S)Nc2cccc(OC)c2)c2ccccc21 | inconclusive: 11.2 µM [inhibitor, full curve] |  |
| CCN(CC)N=Nc1ccc(S(=O)(=O)Nc2nc(C)cc(C)n2)cc1 | inactive |  |
| CCCCC(=O)Nc1nc(C)c(-c2csc(Nc3ccc(Cl)cc3)n2)s1 | inconclusive: 44.7 µM [inhibitor, partial curve] |  |
| CC1=NN(C(N)=S)C(=O)C1N=Nc1ccc(Cl)cc1 (configuration not stated) | inconclusive: 79.4 µM [inhibitor, single point] |  |
| CCOC(=O)c1ccc(-n2c(CCC(=O)O)ccc2-c2ccc(Br)cc2)cc1 | inconclusive: 25.1 µM [inhibitor, partial curve] |  |
| CC(Oc1ccc2c3c(c(=O)oc2c1)CCC3)C(=O)NCC1CCC(C(=O)O)CC1 (configuration not stated) | inconclusive: 89.1 µM [inhibitor, single point] |  |
| O=C(NC(=S)N1CCN(c2c(Cl)cccc2[N+](=O)[O-])CC1)c1cccs1 | inconclusive: 15.8 µM [inhibitor, full curve] |  |
| CCCCCCCCCCCC1=C(O)C(=O)C=C(O)C1=O | inconclusive: 17.8 µM [inhibitor, full curve] and inconclusive: 35.5 µM [inhibitor, full curve, poor fit] |  |
| CN(C)CCCn1c(SCC(=O)N2c3ccccc3Sc3ccccc32)nc2ccccc2c1=O | inconclusive: 39.8 µM [inhibitor, partial curve, poor fit] |  |
